{"source": "PubChem BioAssay AID2546", "about": "(National Center for Advancing Translational Sciences (NCATS), 2010)", "note": "Out of some 310,000 compounds screened, about 11,000 (3.5%) were called active. The shares of active, inactive and inconclusive entries below differ from those in the screen. Calls follow the shape of the dose curve; as a rule, active = well fitted inhibition curve with a large enough effect; inconclusive = small, poorly fitted or top-dose-only effect, or effect the other way; inactive = flat fitted curve, though single readings scatter. Potencies of inconclusive entries are left out as doubtful fits.", "data": [{"experiment": "VP16 counterscreen qHTS for inhibitors of ROR gamma transcriptional activity;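 also: Gal4-VP16 expression switched on by copper sulfate through the metallothionein promoter; nearly all actives have a fitted effect of over 50% in size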; also: potency is read from the fitted curve at half-maximal effect; tags tell the direction and shape of the fitted curve", "conditions": "Drosophila S2 Gal4-VP16 UAS-luciferase, luminescence, 20 h; series mostly up to 53.6 µM", "values": [{"compound": "CC1=C(C(=O)OCc2ccccc2)C(C2CCCCC2)NC(=O)N1CCCCCC(=O)O", "note": "(stereo not given)", "Potency": "inconclusive [inhibitor, full curve, poor fit]"}, {"compound": "Cc1cc(=O)n2[nH]c(-c3ccco3)nc2n1", "Potency": "inactive"}, {"compound": "CCCCNC(=O)c1ccccc1SCc1c(C)noc1C", "Potency": "inconclusive [inhibitor, single point]"}, {"compound": "C[C@H](NC(=O)c1nc[nH]c1C(=O)N[C@@H](Cc1ccccc1)C(=O)OCc1ccccc1)c1ccccc1", "Potency": "active: 7.94 µM"}, {"compound": "O=C(CSc1ccccc1)Nc1nnc(/C=C/c2ccccc2)s1", "Potency": "inconclusive [inhibitor, partial curve]"}, {"compound": "CC(=O)Nc1ccc(NC(=O)CN2C(=O)COc3ccc(S(=O)(=O)N4CCCCC4)cc32)cc1", "Potency": "inactive"}, {"compound": "Cc1cc2c(OCC(O)CN3CCCC3)cccc2[nH]1", "note": "(stereo not given)", "Potency": "inactive"}, {"compound": "CC(=O)Nc1ccc(/C(C)=N/Nc2nc(Nc3cccc4ccccc34)nc(N3CCOCC3)n2)cc1", "Potency": "active: 11.2 µM"}, {"compound": "Cc1c(Cl)cccc1NC(=O)COC(=O)c1c2c(nc3ccccc13)CCN(Cc1ccccc1)C2", "Potency": "inactive"}, {"compound": "CCc1ccc(-c2nc(CN3CCC(C(=O)NCCN(CC)c4ccccc4)CC3)c(C)o2)cc1", "Potency": "inactive"}, {"compound": "O=C(/C(=C(\\O)c1ccccc1)c1nc2ccccc2[nH]1)c1ccccc1", "Potency": "inconclusive [inhibitor, single point]"}, {"compound": "O=C(CSc1nnc(-c2cccs2)n1-c1ccccc1)NCc1ccc2c(c1)OCO2", "Potency": "inactive"}, {"compound": "COC(=O)c1nn(-c2ccc(C)cc2)c2nnc(Cc3ccccc3)c(=O)n12", "Potency": "inconclusive [inhibitor, single point]"}, {"compound": "COc1ccc(Cn2c3nc4ccccc4nc3c3c(=O)n(Cc4ccco4)cnc32)cc1", "Potency": "inconclusive [inhibitor, single point]"}, {"compound": "CCc1ccc(C(=O)NC(=S)Nc2ccccc2N2CCOCC2)cc1", "Potency": "active: 3.16 µM"}, {"compound": "CCn1c(-c2nn(C)c(C)c2Cl)n[nH]c1=S", "Potency": "inconclusive [inhibitor, single point]"}, {"compound": "CC(=O)Nc1ccc(S(=O)(=O)N2CCN(C(=O)N3CCCC3)CC2)cc1", "Potency": "inactive"}, {"compound": "Cc1cccc(/C=N\\NC(=O)c2ccc(Cl)cc2)c1O", "Potency": "active: 12.6 µM"}, {"compound": "CSCCC(NC(=O)C1CCC(C)CC1)C(=O)OCC(=O)c1ccc(Cl)cc1", "note": "(stereo not given)", "Potency": "active: 3.98 µM"}, {"compound": "Fc1cccc(NC(=S)NCCc2ccccc2)c1", "Potency": "inconclusive [inhibitor, single point]"}, {"compound": "O=Cc1sc(Nc2ccccc2)nc1Cl", "Potency": "inconclusive [activator, single point]"}, {"compound": "O=S1(=O)N=C(N2CCN(Cc3ccc4c(c3)OCO4)CC2)c2ccccc21", "Potency": "inconclusive [inhibitor, full curve]"}, {"compound": "C=CCN(CC=C)S(=O)(=O)c1ccc(C(=O)Nc2nc3c(s2)CCc2ccccc2-3)cc1", "Potency": "inconclusive [inhibitor, partial curve]"}, {"compound": "Cc1onc(-c2c(F)cccc2Cl)c1C(=O)Nc1cccc2nsnc12", "Potency": "inactive"}, {"compound": "CCOc1ccc(C(=O)Nc2cccc([N+](=O)[O-])c2)cc1Br", "Potency": "inconclusive [inhibitor, partial curve, poor fit]"}, {"compound": "Cc1ccc(-n2cc(CN(C)Cc3nccn3C)c(-c3ccc(F)cc3)n2)cc1", "Potency": "inconclusive [inhibitor, single point]"}, {"compound": "CCc1nnc(NC(=O)c2cccc(S(=O)(=O)N3CCN(c4ccccc4)CC3)c2)s1", "Potency": "inconclusive [inhibitor, single point]"}, {"compound": "COc1cc(/C=N/NS(=O)(=O)c2ccc3ccccc3c2)ccc1OCc1ccc(C(=O)O)cc1", "Potency": "inconclusive [activator, partial curve]"}, {"compound": "C/C(=N\\NC(=S)NC(C)C)c1ccccc1OC(F)F", "Potency": "active: 5.62 µM"}, {"compound": "CCOC(=O)c1cnc(-n2nc(C)cc2C)nc1NC", "Potency": "active: 5.62 µM"}, {"compound": "C[C@H](N)C(=O)NCC(=O)N[C@H]1CSSC[C@@H](C(=O)O)NC(=O)[C@H](CO)NC(=O)[C@H]([C@@H](C)O)NC(=O)[C@H](Cc2ccccc2)NC(=O)[C@H]([C@@H](C)O)NC(=O)[C@H](CCCCN)NC(=O)[C@@H](Cc2c[nH]c3ccccc23)NC(=O)[C@H](Cc2ccccc2)NC(=O)[C@H](Cc2ccccc2)NC(=O)[C@H](CC(N)=O)NC(=O)[C@H](CCCCN)NC1=O", "Potency": "inactive"}, {"compound": "CCCCCCC(C)NC(=S)Nc1cc(S(=O)(=O)N(C)C)ccc1C", "note": "(stereo not given)", "Potency": "inconclusive [inhibitor, single point]"}, {"compound": "CCCCNc1nc(N)nc(-c2cc(Cl)ccc2O)n1", "Potency": "inactive"}, {"compound": "O=C(Oc1cccccc1=O)c1ccccc1", "Potency": "inconclusive [inhibitor, single point]"}, {"compound": "Cc1cc(C)c(C(=O)Nc2ccc(Br)c(C(F)(F)F)c2)c(C)c1", "Potency": "inconclusive [inhibitor, single point]"}, {"compound": "Cc1nn(-c2nc3ccccc3s2)c(C)c1Oc1ccccc1O", "Potency": "inconclusive [inhibitor, single point]"}, {"compound": "c1ccc(-c2nc(NCc3cccnc3)c3ccccc3n2)cc1", "Potency": "inactive"}, {"compound": "C=CCSc1n[nH]c(-c2ccc(OCCC)cc2)n1", "Potency": "inconclusive [inhibitor, single point]"}, {"compound": "Cc1cc(C)cc(CC(Cc2nc3ccccc3[nH]2)c2nc3ccccc3[nH]2)c1", "note": "(stereo not given)", "Potency": "active: 11.2 µM"}, {"compound": "O=[N+]([O-])c1cccnc1NCCc1c[nH]c2ccccc12", "Potency": "inconclusive [activator, full curve]"}, {"compound": "CN(Cc1ccco1)c1ncnc2ccc(-c3ccccc3C(F)(F)F)cc12", "Potency": "inactive"}, {"compound": "CN(C)n1cccc1/C=C(\\C#N)S(=O)(=O)c1ccc(Cl)cc1", "Potency": "inactive"}, {"compound": "COc1ccc(/C=N/NC(=O)c2ccccc2O)cc1CSc1ccccn1", "Potency": "inconclusive [inhibitor, single point]"}, {"compound": "Cc1ccnc(OC(C(=O)O)C(OCc2ccccc2)(c2ccc(F)cc2)c2ccc(F)cc2)n1", "note": "(stereo not given)", "Potency": "inactive"}, {"compound": "O=C(Nc1ncc(Cc2ccccc2Cl)s1)c1ccc(-c2cccc([N+](=O)[O-])c2)o1", "Potency": "inconclusive [inhibitor, single point]"}]}]}
